Source: ChEMBL document CHEMBL1201862, “PubChem BioAssay data set” (2004)
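Briefly, cells in 96-well plates were exposed to five compound concentrations for 48 h, and endpoints were estimated by linear interpolation. GI50: concentration for 50% inhibition of growth.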 Activity calls are given as the source filed them. No stated cut-off is given here; in the data, active = GI50 up to about 1.1 µM and inactive = higher.

Test system: NCI-H322M
Assay: NCI tumour cell line growth inhibition, 48 h

Row | Compound | GI50
1 | Clc1n[nH]c2ccccc12 | inactive: > 100 µM
2 | COc1ccc(N2C(=O)C3c4[nH]c5ccccc5c4C4C(C)CCCC4C3C2=O)cc1 (configuration not stated) | inactive: > 90.8 µM
3 | COc1cc2c(c(O)c1OC)-c1c(cc(OC)c(OC)c1OC)CC(C)C(C)C2 (configuration not stated) [GOMISIN K3] | inactive: > 100 µM
4 | C=C(C(=O)OC)[C@H]1CC/C(C)=C/CC[C@@](C)(O)C=CC[C@@]2(C)O[C@@H]2C1 | inactive: 27.4 µM
5 | C=C1[C@@H](OC(C)=O)[C@H]2[C@@H](OC(C)=O)[C@@](C)(OC(C)=O)C[C@]2(OC(C)=O)C(=O)[C@@H](C)/C=C/C(C)(C)C(=O)C[C@H]1OC(C)=O | inactive: > 100 µM
6 | COC1=C2C[C@@H](C)C[C@@H](OC)[C@@H](O)[C@H](C)/C=C(\C)[C@@H](OC(N)=O)[C@H](OC)/C=C\C=C(/C)C(=O)NC(=CC1=O)C2=O | inactive: 8.51 µM
7 | C/C=C1/CN2CC[C@@H]3c4ccccc4N4[C@H](C(=O)OC)[C@H]1C[C@H]2[C@]34/C=C/C1=COC[C@@H]2[C@H]1C[C@H]1c3c(c4ccccc4n3C)C[C@@H]2N1C | inactive: 4.02 µM
8 | COn1cc(CO)c2ccccc21 | inactive: > 86.7 µM
9 | c1ccc(SC(CCCCC(Sc2ccccc2)Sc2ccccc2)Sc2ccccc2)cc1 | inactive: > 100 µM
10 | Nc1[nH]c(=S)[nH]c(=O)c1/N=N/c1c(Br)cc(S(N)(=O)=O)cc1Br | inactive: > 100 µM
11 | CCCn1cc2c(SC)nc(SC)nc2n1 | inactive: > 100 µM
12 | O=C1CC2CCC(C1)[S+]2[O-] (configuration not stated) | inactive: > 100 µM
13 | CC1CC(Nc2ccc(Br)cc2)N(C(=O)c2ccc(Br)cc2)O1 (configuration not stated) | inactive: > 10 µM
14 | CCCCC/C(C=O)=C\c1ccccc1 | inactive: > 100 µM
15 | O=c1[nH]c2c(c3ccccc13)CCc1ccccc1-2 | inactive: > 100 µM
16 | COc1cc(/C=C(\C#N)C(N)=C(C#N)C#N)cc(O)c1O | inactive: > 82 µM
17 | O=C(/C=N/O)c1c(-c2ccccc2)[nH]c(-c2ccccc2)c1-c1ccccc1 | inactive: 11.6 µM
18 | CC1=NN(C(=O)c2ccccc2O)C(=O)/C1=C/c1cccc(O)c1 | inactive: 3.65 µM
19 | Cc1cc(S(=O)(=O)Nc2nnc3c4ccccc4cnn23)c(S)cc1Cl | inactive: 30.9 µM
20 | CC(C)=CCOc1cc(NC(=S)c2ccoc2C)ccc1Cl [UC 781] | inactive: > 100 µM
21 | O=C(/C=C(\S/C=C(/c1ccccc1)N1CCn2c(C(=O)c3ccccc3)c(C(=O)c3ccccc3)c(C(=O)c3ccccc3)c21)C(=O)c1ccccc1)c1ccccc1 | inactive: > 10 µM

Row | Compound | GI50
22 | C/C(=N\NC(=S)N/N=C(\C)c1ccccn1)c1ccccn1 | inactive: 4.43 µM
23 | Clc1cc2nc(C3CCCO3)[nH]c2cc1Cl (configuration not stated) | inactive: 48.6 µM
24 | O=C(O)/C(Cl)=C(/Cl)C(=O)Nc1cccc(Cl)c1 | inactive: 54.5 µM
25 | CC12CP(=O)(O)CC1C2(Cl)Cl (configuration not stated) | inactive: > 100 µM
26 | COc1ccc(C(=O)/C=C/c2ccc(O)c(O)c2F)c(OC)c1 | inactive: 7.5 µM
27 | CCN1C(=O)C(=CN)C(=O)N(CC)C1=O | inactive: > 100 µM
28 | CC1(C)[C@@H]2CC[C@@]1(C)CN(CCC[N+](C)(C)C)C2 | inactive: > 100 µM
29 | COC(=O)CCNC(=O)OCc1ccccc1 | inactive: > 100 µM
30 | COc1ccccc1OCC(=N/NC(=O)c1ccncc1)/N=C/c1cccnc1 | inactive: > 100 µM
31 | Cc1ccc(NC(=O)OCC(COc2ccc(Cl)cc2Cl)OC(=O)Nc2ccc(C)cc2)cc1 (configuration not stated) | inactive: 7.94 µM
32 | O=C1CCC(=O)N1Cc1ccccc1/N=[N+](\[O-])c1ccccc1CN1C(=O)CCC1=O | inactive: > 100 µM
33 | Cc1ccccc1NC(=O)Cc1csc(N/N=C2\NC(=O)/C(=C/c3cccc([N+](=O)[O-])c3)S2)n1 | inactive: 47.8 µM
34 | COC(=O)Cc1cc(O)c2c(c1O)C(=O)c1ccccc1C2=O | inactive: > 68.9 µM
35 | C=CCCC1CCCNC1=S (configuration not stated) | inactive: > 100 µM
36 | CN1C(=O)c2ccccc2OC12C=Cc1c(ccc3ccccc13)O2 (configuration not stated) | inactive: 15.2 µM
37 | COc1cc(/C=C/c2ccccn2)cc(OC)c1OC | inactive: > 10 µM
38 | CCOC(=O)N(C)C1(c2ccccc2)CCN(CCCC(=O)c2ccc(F)cc2)CC1 | inactive: 65.2 µM
39 | COc1cc(C(C)(C)C)c(OC(=O)/C=C/C(=O)O/C=C/[N+](=O)[O-])c(C(C)(C)C)c1 | inactive: > 100 µM
40 | CC(=O)c1sc(Nc2nnc(-c3ccc(-c4nnc(Nc5nc(C)c(C(C)=O)s5)o4)cc3)o2)nc1C | inactive: > 100 µM
41 | CN(C(=O)c1ccccc1)c1ccc2c(c1)C(=O)c1ccccc1C2=O | inactive: > 100 µM
42 | Cc1ccc(/C=C/C(=O)c2cccc3ccccc23)cc1 | inactive: 17.3 µM

Row | Compound | GI50
43 | CC(NC(=O)C(C)NC(=O)C(N)CCP(C)(=O)O)C(=O)O (configuration not stated) | inactive: > 100 µM
44 | Cn1c2ccccc2c2ccc3c(c21)C(=O)C=CC3=O | inactive: 23.3 µM
45 | Cc1cc(=O)oc2cc3oc(N(C)c4ccccc4)nc(=O)c3cc12 | inactive: > 100 µM
46 | CN(CCNC(=O)c1nn(-c2ccc(Cl)cc2Cl)c2c1Cc1ccccc1-2)CCNC(=O)c1nn(-c2ccc(Cl)cc2Cl)c2c1Cc1ccccc1-2 | inactive: 13.5 µM
47 | COC(=O)c1ccc(C)cc1C1CN=NC12Cc1cc(C)ccc1C2=O (configuration not stated) | inactive: 28.2 µM
48 | Cc1cc([C@H](C#N)c2nc3ccccc3s2)nc(Cl)n1 | inactive: 21.8 µM
49 | COc1cc2cc(C(=O)N3CC(CCl)c4c3cc(NC(=O)C(C)(C)c3ccccc3[N+](=O)[O-])c3ccccc43)[nH]c2c(OC)c1OC (configuration not stated) | inactive: 6.41 µM
50 | CCCCCCCCP(=O)(O)OP(=O)(O)OCC1OC(n2ccc(N)nc2=O)C(O)C1O (configuration not stated) | inactive: > 100 µM
51 | O=c1c2cc(Cl)cc(Cl)c2oc2nc3n(c(=O)c12)CCCS3 | inactive: > 100 µM
52 | C[N+](C)(C)C1(C(=O)[O-])CC1 | inactive: > 100 µM
53 | O=C(Oc1ccc(Cl)cc1[N+](=O)[O-])c1ccccc1 | inactive: > 100 µM
54 | CCOC(=O)/C=C(/C(=O)OCC)n1cc(C)c(=O)n(/C(=C/C(=O)OCC)C(=O)OCC)c1=O | inactive: 16 µM
55 | C#CCOC(=O)C(N)CSSCC(N)C(=O)O (configuration not stated) | inactive: > 100 µM
56 | CCOC(=O)c1c(N=P(c2ccccc2)(c2ccccc2)c2ccccc2)nnc(-c2ccccc2)c1-c1ccccc1 | inactive: > 100 µM
57 | CC(=O)O[C@H]1[C@H](OC(C)=O)[C@@H](CN=[N+]=[N-])OCO[C@@H]1CN=[N+]=[N-] | inactive: > 100 µM
58 | CC1=Nc2ccccc2C12C(c1ccccc1)C(c1ccccc1)C(=O)N1c3ccccc3CC12 (configuration not stated) | inactive: > 100 µM
59 | c1ccc(C(c2cccc3c2ccc2ccccc23)C(c2ccccc2)c2cccc3c2ccc2ccccc23)cc1 (configuration not stated) | inactive: > 100 µM
60 | Cc1c(N)nc(C(CC(N)=O)NCC(N)C(N)=O)nc1C(=O)NC(C(=O)NC(C)C(O)C(C)C(=O)NC(C(=O)NCCc1nc(-c2nc(C(=O)NCCCNC(C)c3ccccc3)cs2)cs1)C(C)O)C(OC1OC(CO)C(O)C(O)C1OC1OC(CO)C(O)C(OC(N)=O)C1O)c1c[nH]cn1 (configuration not stated) | inactive: 41 µM
61 | N#Cc1c(N)nc(S)c(C#N)c1-c1ccccc1 | inactive: > 100 µM
62 | COC(=O)C1Cc2c([nH]c3ccccc23)-c2[nH]c3ccccc3c2CC(NC(C)=O)C(=O)NCC(=O)N1 (configuration not stated) | inactive: > 100 µM
